The text below walks through data of PMC12136788.

Some of the results follow.

First the molecules themselves.
T1: UNK ZnF1-6 (called full-length) (human, UniProt Q9C0B0 30-357)
T1 sequence: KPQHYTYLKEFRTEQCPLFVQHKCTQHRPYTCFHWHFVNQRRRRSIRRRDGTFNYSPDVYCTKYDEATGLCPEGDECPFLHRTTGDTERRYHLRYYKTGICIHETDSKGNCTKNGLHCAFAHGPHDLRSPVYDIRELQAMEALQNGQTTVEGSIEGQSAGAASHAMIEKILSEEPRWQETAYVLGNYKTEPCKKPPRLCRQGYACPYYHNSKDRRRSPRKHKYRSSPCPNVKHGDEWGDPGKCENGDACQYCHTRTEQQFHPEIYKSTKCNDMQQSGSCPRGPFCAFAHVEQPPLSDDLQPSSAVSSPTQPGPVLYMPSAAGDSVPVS

B1: chr17:8173470:8173636:-|3pUTR|ENSG00000179029|msi1|FALSE|unique (ssRNA)
RNA: GGGAGUUCUACAGUCCGACGAUCUGUUUGUCUGUAUCGUCAGGUGGGAUAAUCCUUACCUGUUCCUCCUCCGGAGGGCAGAUUAGAACAUGAUGAUUGGAGAUGCAUGAAACGUGAUUAACGUCUCUGCGUAAUCAGGACUUGCAACAGAGGAUUGAGCAUCA
B2: chrX:129805617:129805718:-|3pUTR|ENSG00000188706|msi1|total|mutant (ssRNA)
RNA: GGGAGUUCUACAGUCCGACGAUCUCUUUUCCCAUCCGAUAUAUGUAAGCCGUUGCCGCCGAGAUAAUAAUUGACAUUUCUCGCCGACUACCCAGAAACUUUUUUAAUACCUGUGCCAUUCUCAAUAAGAAUUUAUGAGAUGCCCAACAGAGGAUUGAGCAUCA
B3: chr1:205620050:205620151:-|CDS|ENSG00000158711|unk|total|mutant (ssRNA)
RNA: GGGAGUUCUACAGUCCGACGAUCGCCAAUGGAACUUCCAGAGAAUUUGUCACUGGAGCCUAAAGACCAGGAUUCAGUCUUGCCCGAAAAGGACAAAGUAAAUAAUUCAUCAAGAUCCAAGAAACCCAAAGGGUCCGAACUGGCCAACAGAGGAUUGAGCAUCA
B4: chr20:32237940:32238012:+|3pUTR|ENSG00000101346|msi1_unk|total|mutant (ssRNA)
RNA: GGGAGUUCUACAGUCCGACGAUCUUUCAAAGAUACAAAUAUUUACACCGUUUUAAUCAUGUAAUAUAUACAAUUUAAUGUCCCCGUGUUUUACUUAACCGUGUAUCAUGUUUUCCCUGUUGGUAUGCCGCCUGGAUAAAUGCUCAACAGAGGAUUGAGCAUCA
B5: ENSG00000070961:be:win_2251|CDS|ENSG00000070961|bound_else_gene|NA|bound_elsewhere_windowed (ssRNA)
RNA: GGGAGUUCUACAGUCCGACGAUCGAGCAAGAGAGGAUAGACAAGAUUUGGCCAAAACUUCGAGUACUUGCAAGAUCAUCUCCUACUGAUAAGCAUACACUGGUUAAAGGUAUAAUUGACAGCACUGUCUCAGACCAACGCCAGCAACAGAGGAUUGAGCAUCA
B6: chr10:74118697:74119064:+|3pUTR|ENSG00000035403|msi1|FALSE|unique (ssRNA)
RNA: GGGAGUUCUACAGUCCGACGAUCGAAGAAAUCACAGAAUCAUAUGAUUCUGCUUUUACCAUGCCCCUGAGCAAUGUCUGUGCUAGGGAAACUUCCCGUCCCAUAUCCUGCCUCAGCCCGCCAAGGUAGCCAUCCCAUGAACACCAACAGAGGAUUGAGCAUCA
B7: chr3:127036428:127036535:+|3pUTR|ENSG00000114554|msi1|FALSE|unique (ssRNA)
RNA: GGGAGUUCUACAGUCCGACGAUCGCGUGUGGCUGGGGCGUGGCCACCACAGAGCACAUGGCUGUGUCUAGGCGCAAGCACUUUAGCAGUAUCUGUUUACAUGCGCAAGGAUCAAGCCGACUACCUGUGCUGUCUACUGGGACACAACAGAGGAUUGAGCAUCA
B8: chr1:26899991:26900442:-|CDS|ENSG00000198746|control|control|control (ssRNA)
RNA: GGGAGUUCUACAGUCCGACGAUCUACCUGGUAGUGAGCGGUAUCCCCUCCGUGUUGCGCUCGGCCCAUUUACGGAGCUAUUUUAGCCAGUUCCGAGAAGAGCGCGGCGGUGGCUUCCUCUGUUUCCACUACCGGCAUCGGCCUCAACAGAGGAUUGAGCAUCA
B9: chr5:115137525:115137627:-|CDS|ENSG00000152503|unk|FALSE|unique (ssRNA)
RNA: GGGAGUUCUACAGUCCGACGAUCUUUAGCAGAAGAGGCUAUUCUUUGUUUUAUCUUAGUGUAAUGGAGAUACUGUUUUUUCUUAGUGUAAUGGAGAGAGGGCUAAAGAAGAAGCAAUUACACAUUUUGAAAAGCUCUUUGAAGCAACAGAGGAUUGAGCAUCA
B10: chr2:86144366:86144519:-|CDS|ENSG00000132305|unk|FALSE|unique (ssRNA)
RNA: GGGAGUUCUACAGUCCGACGAUCAAACACAUUUAAAUUACUGUCAUAUGCUUCCUAUUGCAUUGAGCAUGGUGAUCUGGAGCUAGCAGCAAAGUUUGUCAAUCAGCUGAAGGGGGAAUCCAGACGAGUGGCACAGGACUGGCUCAACAGAGGAUUGAGCAUCA
B11: chr19:7961171:7961272:-|3pUTR|ENSG00000066044|msi1|FALSE|unique (ssRNA)
RNA: GGGAGUUCUACAGUCCGACGAUCGGCGGGAUUCCCGCUUCUGAAACUCCCCCUGGAGUCUCACUCCCACACAUGCCCAUAGCUAGCAUUCAACAGAGAACUCUGUCUUAAGCUUCAACUGUGAAAAUGAUGACGGGCUUGUAGCAACAGAGGAUUGAGCAUCA
B12: chr6:138432586:138432687:-|CDS|ENSG00000135540|unk|FALSE|unique (ssRNA)
RNA: GGGAGUUCUACAGUCCGACGAUCGGAGCCCUGGGAAUACAAAUCCUCAGGUAAUGGAAGGGCAUCCCCCCUGAAGCCGCAUUUAGCAACUCCUGGCUAUUCCACUCCCACAAGUAACAUGAGCAGCUGCAGUUUGGACCAAACCAACAGAGGAUUGAGCAUCA
B13: chr14:103559255:103559356:-|3pUTR|ENSG00000166170|msi1|FALSE|unique (ssRNA)
RNA: GGGAGUUCUACAGUCCGACGAUCGCUUAACGGGGUGGGGUUUUUUUGUUUGUUCAGACAGUCUGUUCUUUUGUAAACAUUUUUAGUUGGAAAAACAGCAUCUGCAUUUUCCCCAUCCUCUACGUUUUAGAGAGGAAUCUUGUUCAACAGAGGAUUGAGCAUCA
B14: chr17:5346795:5346911:+|CDS|ENSG00000029725|unk|total|mutant (ssRNA)
RNA: GGGAGUUCUACAGUCCGACGAUCAGAACUGAAUCAUUAUCUGGAAGCUGAGAAAUCUUGCCGGACUGAUCCCGAGAUGUAUGCCGCUGUUUUGAAUACUCAGAAAUCUGUUCUACAGGAAGAUGCUGAGAAACUGCGGAAAGACAACAGAGGAUUGAGCAUCA
B15: ENSG00000154556:stop:overlap|stop_codon|ENSG00000154556|stop_codon|NA|stop_codon (ssRNA)
RNA: GGGAGUUCUACAGUCCGACGAUCCUUCUUCCCCAUCAAGAGCAAAAGUUACUCAGGGCUCAACGGCAACCCCUCCAGUGAGUUAGAUUACUGUAGCACUUACAGACAGCACUUGGAUGUCCCUCGGGACUCACCAAGAGCCAUCAACAGAGGAUUGAGCAUCA
B16: chr11:62752106:62752207:-|CDS|ENSG00000185670|msi1|total|mutant (ssRNA)
RNA: GGGAGUUCUACAGUCCGACGAUCGGCUCACAAUGAGGACCUGGCCAAACGCAGCAAACCAGAUCCAGAAGUGGGACCCCUUCCCGGGGUGCAGCCUCUCCCUGGCUCCCCAACAGCAGACAGACAGAGCAGCAGUGGUGGAGGCAACAGAGGAUUGAGCAUCA
B17: ENSG00000164751:stop:overlap|stop_codon|ENSG00000164751|stop_codon|NA|stop_codon (ssRNA)
RNA: GGGAGUUCUACAGUCCGACGAUCAAGUACACAGUCUGCAGCCACUGAAAUCAGGAAUCGAGAUGUCAGAAGUAAAUGCUCUUUAGAAACUAAAAUUGCUUCCUUUGAGGAAAAAAAUGCACCGUGUUUAAAUUCUUAAUAUUACAACAGAGGAUUGAGCAUCA
B18: chr10:47502154:47503543:-|CDS|ENSG00000204172|control|control|control (ssRNA)
RNA: GGGAGUUCUACAGUCCGACGAUCGGAGCUGGAUGACUGGCCAGUUGAGCUCAGGAAGGUUAUGUCAUCUAUUGGCAAUGAGCUAGCCAACAGCAUCUGGGAAGGGAGCAGCCAGGGGCAGACAAAACCCUCAAUAAAGUCCACCAACAGAGGAUUGAGCAUCA
B19: chr12:52702891:52703434:-|CDS|ENSG00000189182|control|control|control (ssRNA)
RNA: GGGAGUUCUACAGUCCGACGAUCCUUUGGUCCUUAUUGUCCUCCUGGGGGCAUCCAAGAGGUGACCAUUAACCAGAGCCUCCUAGAGCCACUUCACCUGGAGGUGGACCCUGAAAUUCAGAGGAUCAAGACCCAGGAGCGGGACAACAGAGGAUUGAGCAUCA
B20: chr19:6380113:6380214:-|3pUTR|ENSG00000125651|msi1|FALSE|unique (ssRNA)
RNA: GGGAGUUCUACAGUCCGACGAUCACUUCAGGCUCUCAGUGACCCUUCGACAUCCUGCUUGCUCCCUGACUCCCAGGGCCCCGUAGUUAGCAAUUCUGGAAAAGUUAAGCCAUCUCCUCCUCUGGCCCUUCCUUCUGGAAUCUUCAACAGAGGAUUGAGCAUCA
B21: chr5:159158860:159158961:-|CDS|ENSG00000145860|msi1|total|mutant (ssRNA)
RNA: GGGAGUUCUACAGUCCGACGAUCCCAGGAGACCUGCCCUCUGUGCCACUGCCAUCUGAAAAACUCCUCCCAGCUUCCAGGAUCCGGAACUGAGCCAGUUCUACAGCCUCAUGCUGGAGCUGAGCAAAACGUCAUGUUUCAGGACAACAGAGGAUUGAGCAUCA
B22: chr12:89590234:89590335:-|3pUTR|ENSG00000070961|msi1|total|mutant (ssRNA)
RNA: GGGAGUUCUACAGUCCGACGAUCUUUGCCUACAAUUUACCUUGUUAAAUAUUGCCGAUAAAUUGCUAAUACUAACCGCCAAACCGAUAACACUAAUGCUUUGUUUAAAAAAACGAAAAAAACAAAACAAAACAAAAAAACAUGCAACAGAGGAUUGAGCAUCA

This assay addresses T1, UNK ZnF1-6 (called full-length). The assay is described as follows: nsRBNS (natural sequence RNA bind-n-seq); RBNS binding buffer (assumed for nsRBNS): 25 mM Tris pH 7.5, 150 mM KCl, 3 mM MgCl2, 0.01% Triton X-100, 500 ug/ml BSA, 20 U/ml SUPERase-In, 4 C; UNK is unkempt and MSI1 is Musashi-1; names of the RNAs are library labels; protein concentration not given here; high values mean tight binding.
On to B1, for which the binding signal was found to be 0.884 enrichment R.

As for B2, the binding signal amounted to 0.637 enrichment R. B3: the binding signal came to 0.832 enrichment R. The value for B4 was 0.548 enrichment R. For B5 the value was 0.35 enrichment R; for B6, 0.654 enrichment R; for B7, 0.842 enrichment R.

As for B8, the binding signal came to 0.513 enrichment R.

B9 showed a binding signal of 1.27 enrichment R. For B10 the value was 0.785 enrichment R; for B11, 0.357 enrichment R; for B12, 0.879 enrichment R. The value for B13 was 1.28 enrichment R; that for B14 was 0.778 enrichment R; that for B15 was 0.824 enrichment R. The value for B16 was 0.887 enrichment R; that for B17 was 0.77 enrichment R; that for B18 was 0.885 enrichment R. In turn, B19 showed a binding signal of 0.636 enrichment R. For B20 the value was 1.13 enrichment R. Turning to B21, the binding signal was 0.64 enrichment R. With B22, the binding signal worked out at 0.363 enrichment R.
